Test results: paper PMC5787466, “Accelerated bottom-up drug design platform enables the discovery of novel stearoyl-CoA desaturase 1 inhibitors for cancer therapy” (Oncotarget, 2017)

Columns and labels:
ACHN = test: Proliferation dose-response IC50, ACHN; type: cell-based; details: Homo sapiens, read-out: IC50 (μM) ACHN
Method: (§1) Error bars indicate standard deviation for n=2 replicates. […] To evaluate inhibition of SCD1 by these molecules, we used LC/MS to quantify changes in SCD1-catalyzed conversion of stearoyl-CoA to oleoyl-CoA in response to drug treatments in vitro using SCD1 protein extracted from murine liver (Figure 3c, Supplementary Figure 2g). […] Synthesis routes and spectral data including NMR and MS are also provided (Supplementary Figures 3-6).
(§2) Cells were seeded at 5,000 cells/well in clear-bottom 96-well plates in triplicate. Drug treatment was applied at 1:1000 in reduced serum conditions (3%). […] Alternatively, cells were plated 2x10^5/well in 12-well plates (Genesee Scientific) in triplicate prior to drug treatment. After 120-hour treatment, cell number was established using a Coulter Particle Counter (Beckman). Oleic acid-albumin (Sigma Aldrich) was added to media at 5µM, and was applied adjuvant to drug treatment. Drug stocks were prepared in DMSO (Sigma) at 1000x. IC50 dosing per cell line was calculated using CalcuSyn analytical software.

A498 = test: Proliferation dose-response IC50, A498; type: cell-based; details: Homo sapiens
Method: as §1, §2

Caki1 = test: Proliferation dose-response IC50, Caki1; type: cell-based; details: Homo sapiens
Method: as §1, §2

[1] = biological target: T1, SCD1 protein extracted from murine liver (Mus musculus, UniProt P13516); test: In vitro SCD1 enzymatic inhibition by LC/MS (stearoyl-CoA to oleoyl-CoA, liver microsomes); type: biochemical; details: murine liver microsomes, LC/MS, n=2; read-out: IC50 (nM), SCD1 enzymatic inhibition
T1 construct: Microsomes were isolated from murine liver using Microsome Isolation Kit (BioVision); from tissue; host or cells: murine liver microsomes
T1 sequence (P13516 1-355): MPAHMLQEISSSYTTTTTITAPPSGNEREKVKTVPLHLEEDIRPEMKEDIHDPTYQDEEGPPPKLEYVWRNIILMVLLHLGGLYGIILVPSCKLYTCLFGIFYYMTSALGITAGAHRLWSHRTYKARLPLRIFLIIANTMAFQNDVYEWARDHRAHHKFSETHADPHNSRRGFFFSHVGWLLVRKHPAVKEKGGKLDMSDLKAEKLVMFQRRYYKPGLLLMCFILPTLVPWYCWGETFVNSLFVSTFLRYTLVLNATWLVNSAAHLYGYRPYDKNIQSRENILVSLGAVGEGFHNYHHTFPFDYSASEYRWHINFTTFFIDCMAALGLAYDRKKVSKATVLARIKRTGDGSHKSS
Source text: as §1, with “After synthesis feasibility and cost analysis, we synthesized 38 of the selected compounds.” for “Error bars indicate standard deviation for n=2 replicates.”
Microsomes were isolated from murine liver using Microsome Isolation Kit (BioVision) per the manufacturer protocol. […] To quantify biotransformation of ^13C18-stearoyl CoA to ^13C18-oleoyl CoA for drug treatments relative to vehicle controls, supernatants were evaluated using the LC/MS^2 acyl CoA quantitation method of Magnes et al. and adapting selected reaction monitoring (SRM) for isotope-labeled acyl CoAs. […] SRM signal areas for isotope-labeled acyl CoAs were measured relative to the heptadecanoyl CoA I.S. using XCalibur software (Thermo), and percent enzyme inhibition determined by comparing ^13C18-oleoyl CoA quantities between treatment and DMSO control assays. […]

Caki2 = test: Proliferation dose-response IC50, Caki2; type: cell-based; details: Homo sapiens, CAKI-2, read-out: IC50 (μM) Caki2
Method: as §1, §2

SMILES | IC50 (ACHN; proliferative IC50, linear regression modeling of dose-response) | IC50 (A498; A498, proliferative IC50, linear regression modeling of dose-response, read-out: IC50 (μM) A498) | IC50 (Caki1; CAKI-1, proliferative IC50, linear regression modeling of dose-response, read-out: IC50 (μM) Caki1) | IC50 [1] | IC50 (ACHN) | IC50 (A498; A498, read-out: IC50 (μM) A498) | IC50 (Caki1; CAKI-1, read-out: IC50 (μM) Caki1) | IC50 (Caki2)
CNC(=O)c1cc(S(=O)(=O)N2CCC(Oc3ccccc3Cl)CC2)c[nH]1 [SetA.68] | 0.05 µM | 0.04 µM | 12 µM |  |  |  |  | 
O=C(NCc1ccnc(OCc2ccccc2)c1)N1CCN(C(=O)c2ccccc2C(F)(F)F)CC1 [SSI-3] |  |  |  | > 500 nM | 4 µM | 16 µM | 25 µM | 23 µM

Where two headings read alike, the source gives them in different places.
